Reference: PubChem BioAssay AID504466 (National Center for Advancing Translational Sciences (NCATS), 2011)
Out of some 330,000 compounds screened, about 4,200 (1.3%) were called active. The shares of active, inactive and inconclusive entries below differ from those in the screen. The call rests on the fitted dose curve; in most records, active means well fitted activation curve with a large enough effect; inconclusive means small, poorly fitted or top-dose-only effect; inactive means no such curve, though single readings can be large or run the other way. Potencies of inconclusive entries are doubtful fits and often do not repeat.

test: qHTS screen for small molecules that induce genotoxicity in human embryonic kidney (HEK293T) cells expressing luciferase-tagged ELG1; conditions: HEK293T ELG1-luciferase reporter, luminescence, 16 h; series mostly up to 46 µM; activity change, positive = activation: at the top concentration; further: nearly all actives have a fitted effect of over 60% in size; on activity change, positive = activation: % of control where 0% means no effect
In short: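 Step 1: seed 2,000 HEK293T ELG1-luciferase cells per well. Step 2: add compound or DMSO, incubate 16 hr at 37 °C. Step 3: ONE-Glo, 30 min at room temperature, read luminescence.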
Potency means the concentration at half of the fitted maximal effect; tags describe the fitted curve by direction and shape.

SMILES	Potency	activity change, positive = activation
Cc1c(C(=O)/C=C/N(C)C)nnn1-c1ccc(F)c(Cl)c1	inconclusive: 11.6 µM [activator, partial curve, poor fit]	–
Oc1ccc(Nc2nc(-c3cccnc3)cs2)cc1	inconclusive: 7.3 µM [activator, partial curve, poor fit]	–
CCCC(=O)n1nc(-c2ccc(Cl)cc2)nc1SC	inconclusive: 13 µM [activator, partial curve]	–
CN(CC(=O)Nc1ccc2c(c1)OCO2)S(=O)(=O)c1cccs1	inconclusive: 16.4 µM [activator, partial curve, poor fit]	–
CN(C)CCCNC(=O)c1ccc(/C=N/O)nc1	inconclusive: 5.8 µM [activator, partial curve]	–
CN(C)CCNc1oc(-c2cccc(Cl)c2)nc1C#N	inconclusive: 25.9 µM [activator, partial curve, poor fit]	–
CCOC(=O)c1ccc(NC(=O)N2CCCCC2)cc1	active: 10.3 µM	–
O=C(CSc1ccccc1)NCc1ccccc1	inconclusive: 16.4 µM [activator, partial curve, poor fit]	–
O=C(Nc1ccc(CN2CCCCC2)cc1)c1cccc(F)c1	inconclusive: 23.1 µM [activator, partial curve, poor fit]	–
Cc1occc1C(=O)Nc1nnc(C2CCCCC2)s1	inconclusive: 11.2 µM [activator, partial curve]	–
Oc1c(/C=N/Nc2cccc3cccnc23)ccc2ccccc12	inconclusive: 14.6 µM [activator, partial curve]	–
CC(C)(C)c1ccc(/C=C/C(=O)N2CCOCC2)cc1	inconclusive: 14.6 µM [activator, partial curve, poor fit]	–
CCCCCCc1ccc(-c2ncc(N)cn2)cc1	inconclusive: 12.6 µM [activator, partial curve, poor fit]	–
O=C(NCc1cccs1)NC1CCCCC1	inconclusive: 5.8 µM [activator, partial curve, poor fit]	–
CC(Sc1nnc(-c2ccncc2)n1-c1ccc(F)cc1)C(=O)NC1CC1 (stereo not drawn)	–	inactive: 0.807%
O=C(COC(=O)CC1CC2CCC1C2)NCc1ccccc1 (stereo not drawn)	–	inactive: 0.371%
Cc1ccccc1SCC(=O)OCC(=O)Nc1sccc1C(N)=O	–	inactive: -2.09%
COc1cccc(-c2noc(-c3ccc4c(c3)OCO4)n2)c1	active: 1.83 µM	–
Cc1c(C(=O)N2CCN(c3ccc(F)cc3)CC2)sc2ncnc(N3CCN(c4ccccn4)CC3)c12	–	inactive: -13.7%
NS(=O)(=O)c1ccc(NC(=O)CSc2nc(Nc3ccccc3)nc(N3CCOCC3)n2)cc1	–	inactive: -0.671%
COC(=O)c1ccc(CSc2nc3ccccc3s2)o1	active: 16.4 µM	–
CN1CCN(c2ccc(NC(=O)c3ccc4c(c3)OCCO4)cc2)CC1	active: 4.61 µM	–
CC(Cc1ccccc1)NC(=O)CN1C(=O)c2ccccc2S1(=O)=O (stereo not drawn)	inconclusive: 29.1 µM [activator, single point]	–
COc1ccc2nc3ccccc3nc2c1N	active: 18.3 µM	–
Cn1c(=O)c(-c2cc(Br)ccc2N)nc2ccccc21	inconclusive: 11.2 µM [activator, partial curve]	–
O=C(/C=C/c1ccccc1)NC(=S)NNC(=O)Cc1cccs1	–	inactive: 1.38%
CCSc1ncc(/C=N/Nc2ccc([N+](=O)[O-])cc2)n1C	inconclusive: 4.11 µM [activator, full curve]	–

SMILES	Potency	activity change, positive = activation
CCN(CC)S(=O)(=O)c1ccc(OC)c(NC(=O)CSCc2c(C)noc2C)c1	–	inactive: 3.26%
COc1ccc(OC)c(C2CC(=O)Nc3n[nH]c(-c4ccccc4)c32)c1 (stereo not drawn)	inconclusive: 23.1 µM [activator, partial curve, poor fit]	–
CN(C)c1ccc(-c2nnc(-c3ccccc3F)o2)cc1	inconclusive: 1.64 µM [activator, full curve]	–
COc1cc(C(=S)N2CCCC2)ccc1OCc1ccc(C)cc1	active: 20.6 µM	–
Cc1c(C(=O)/C=C/c2cccs2)oc2ccc(F)cc12	inconclusive: 20.6 µM [activator, partial curve, poor fit]	–
CC(=O)Nc1cc(C)c2nc(NC(C)=O)sc2c1	inconclusive: 18.3 µM [activator, single point]	–
Cc1ccc(-c2nc(SCC(=O)Nc3ccccc3OC(F)F)c3c(C)c(C(=O)O)sc3n2)cc1	inconclusive: 16.4 µM [activator, single point]	–
COc1cc(/C=C2\SC(=O)N(CCNC(=O)c3c(C)noc3C)C2=O)cc(OC)c1OC	–	inactive: -1.24%
N#Cc1nc(COc2ccccc2)oc1N1CCOCC1	inconclusive: 29.1 µM [activator, partial curve, poor fit]	–
CCc1ccc2c(c1)C(c1ccncc1)=NNC(c1ccccc1)=N2	inconclusive: 20.6 µM [activator, partial curve, poor fit]	–
O=C(Nc1cccc(O)c1)c1cc(-c2ccc3c(c2)OCO3)on1	inconclusive: 0.184 µM [activator, full curve, poor fit]	–
COC(=O)c1c(NC(=O)Cc2cccs2)sc2c1CCCC2	inconclusive: 8.2 µM [activator, partial curve]	–
CCOC(=O)/C(=N\Nc1ncnc2ccccc12)c1ccc(C)cc1	inconclusive: 3.98 µM [activator, partial curve, poor fit]	–
Cc1cc(C)nc(Nc2ccc(N3CCCC3)cc2)n1	inconclusive: 16.4 µM [activator, partial curve]	–
COC(=O)[C@]1(C)N[C@H](c2ccc(SC3CCCCC3)c(OC)c2)[C@@H]2C(=O)N(C)C(=O)[C@@H]21	–	inactive: -0.321%
N#Cc1ccccc1S(=O)(=O)N1CCN(S(=O)(=O)c2ccc(Br)c(C(=O)O)c2)CC1	–	inactive: 1.88%
Nc1nc2ccccc2cc1-c1cccs1	inconclusive: 16.4 µM [activator, partial curve, poor fit]	–
NNC(=O)c1sc(-c2ccc(Cl)cc2)cc1N	inconclusive: 13 µM [activator, partial curve, poor fit]	–
CCCc1ccc(C(=O)/C=C/N(C)C)cc1	active: 9.2 µM	–
COc1cc(C(=O)Nc2ccc(C)cc2C(NCC(=O)NN)c2ccccc2)cc(OC)c1OC (stereo not drawn)	inconclusive: 18.3 µM [activator, single point]	–
CCC(C)(C)NC(=O)CN(C(=O)CCC(=O)Nc1nccs1)c1ccc2c(c1)OCCO2	inconclusive: 0.651 µM [activator, single point]	–
CCOC(=O)C1(Cc2ccccc2Cl)CCN(C(=O)CN2CCOC2=O)CC1	inconclusive: 20.6 µM [activator, partial curve]	–
CCOc1ccc(N/C=C/C(=O)c2ccc(OC)c(OC)c2)cc1	active: 18.3 µM	–
Cc1cc2c(C)c(C)c(=O)[nH]c2cc1N	inconclusive: 20.6 µM [activator, partial curve]	–
Cc1nc(/C=C/c2ccccc2)cc(/C=C/c2ccccc2)n1	inconclusive: 12.6 µM [activator, partial curve, poor fit]	–
Cc1ccc(/C=N/NC(=O)c2n[nH]c3c2CCCC3)cc1	active: 6.51 µM	–
